Results as given in PubChem BioAssay AID1645887 (National Center for Advancing Translational Sciences (NCATS), 2021).
“And” between values parts separate entries of the source, which are not always exact repeats. Equal values may be shown once. The campaign covered roughly 16,000 compounds. About 40 (0.2%) were called active. About 1% were inconclusive and are not listed. Calls come from the whole dose curve; as a rule, active = well fitted activation curve with a large enough effect; inconclusive = small, poorly fitted or top-dose-only effect, or another doubt; inactive = no such curve, though single readings can be large or run the other way. Some of the results follow.

What follows are compounds tested against Rap guanine nucleotide exchange factor 4 (Homo sapiens) (UniProt Q8WZA2) (assay: Validation qHTS for agonist of cAMP-regulated guanine nucleotide exchange factor 4 (EPAC2)). Details: EPAC2 Rap1B BODIPY-GDP exchange, fluorescence; activation: hits give high values.
Chain of UniProt Q8WZA2 (Q8WZA2 whole entry, looked up): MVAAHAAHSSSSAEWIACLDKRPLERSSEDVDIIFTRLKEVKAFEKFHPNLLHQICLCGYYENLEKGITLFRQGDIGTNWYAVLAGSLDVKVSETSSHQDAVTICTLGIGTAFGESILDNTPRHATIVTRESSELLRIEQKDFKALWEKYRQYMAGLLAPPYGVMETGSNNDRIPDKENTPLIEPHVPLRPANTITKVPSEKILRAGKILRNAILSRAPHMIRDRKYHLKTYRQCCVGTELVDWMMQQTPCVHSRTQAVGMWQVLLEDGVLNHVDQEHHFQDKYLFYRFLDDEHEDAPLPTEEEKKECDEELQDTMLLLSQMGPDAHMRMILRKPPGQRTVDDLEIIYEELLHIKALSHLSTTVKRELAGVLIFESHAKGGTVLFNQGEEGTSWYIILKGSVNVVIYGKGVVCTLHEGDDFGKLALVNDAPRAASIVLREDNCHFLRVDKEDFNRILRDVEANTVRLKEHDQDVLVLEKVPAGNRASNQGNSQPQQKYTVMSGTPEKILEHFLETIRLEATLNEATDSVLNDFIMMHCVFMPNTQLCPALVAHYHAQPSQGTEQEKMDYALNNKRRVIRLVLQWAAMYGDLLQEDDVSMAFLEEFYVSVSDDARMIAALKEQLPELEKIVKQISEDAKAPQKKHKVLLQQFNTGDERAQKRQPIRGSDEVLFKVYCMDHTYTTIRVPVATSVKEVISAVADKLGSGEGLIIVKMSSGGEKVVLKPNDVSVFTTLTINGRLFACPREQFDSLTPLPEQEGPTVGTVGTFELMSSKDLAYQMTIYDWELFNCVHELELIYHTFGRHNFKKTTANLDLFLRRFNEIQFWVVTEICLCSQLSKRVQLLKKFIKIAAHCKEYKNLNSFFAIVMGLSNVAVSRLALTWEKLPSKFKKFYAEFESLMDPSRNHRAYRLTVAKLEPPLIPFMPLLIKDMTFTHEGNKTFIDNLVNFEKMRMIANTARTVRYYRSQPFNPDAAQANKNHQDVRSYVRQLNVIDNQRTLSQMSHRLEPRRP
Method in brief: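 Fluorescent exchange assay: 100 nM EPAC2 with 250 nM RAP1B-BODIPY-GDP and 50 uM GDP; compound added, 5 min at room temperature, then read (ex 480/em 540 nm) every 5 min for 30 min. Normalized to 6.5 mM cAMP agonist control.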
% is set by controls: 0 for no effect and ±100 for the full control effect.
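Note: exchange makes BODIPY-GDP fluorescence drop when released from Rap1B; series mostly up to about 150 µM.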

activation, inactive:
CCCCCC/C=C\CCCCCCCc1cccc(O)c1C(=O)O -19.8%
CC[C@H]1CN2CCc3cc(OC)c(OC)cc3[C@H]2C[C@@H]1C[C@@H]1NCCc2cc(OC)c(OC)cc21 2.28%
O=C(Oc1cc(OC(=O)c2ccccc2)c2c(c1)OC(c1ccc(OC(=O)c3ccccc3)c(OC(=O)c3ccccc3)c1)[C@@H](OC(=O)c1ccccc1)C2)c1ccccc1 (stereo partly drawn) -15.7%
COc1ccc(C(=O)N2CCC3(CCN(C(=O)Nc4cccc(F)c4)CC3)CC2)cc1 -19.3%
Cc1c(C(N)=O)cc([N+](=O)[O-])cc1[N+](=O)[O-] -10.8%
CCN(CC)C[C@@H]1CCCCN1CC(=O)N1c2ccccc2C(=O)Nc2cccnc21 -8.18%
CN1CCC2(CC1)CCN(C(=O)c1cccc(F)c1)CC2 -8.12%
O=S1(=O)[C@H]2C[C@@H]3C=C[C@@]2(CN1Cc1ccc(Cl)cc1)O3 0.0863%
CNC(=O)[C@H]1O[C@@H](n2cnc3c(NCc4cccc(I)c4)ncnc32)[C@H](O)[C@@H]1O 6.94% and -4.99% and -18.9%
Cc1cccc(CNc2nc(-c3cccc(NS(C)(=O)=O)c3)nc3ccccc23)c1 -7.89%
C/C=C/C(=O)N(CC)c1ccccc1C -5.78% and -11.3%
O=c1c(-c2ccc(F)c(F)c2)nc2cncnc2n1C1CC1 -15.8%
COc1ncc2nc(-c3ccc(F)cc3)c(=O)n(CCc3ccccc3)c2n1 -4.88%
CCOC(=O)C[C@H]1c2cc(C(F)(F)F)ccc2S(=O)(=O)N1C(C)C -12.9%
NC(N)=NCCNS(=O)(=O)c1cccc2cnccc12 6.28%
COc1ccc(NC(=O)[C@@H]2CC=C[C@@H]3CCN(Cc4ccc(Cl)c(Cl)c4)C(=O)[C@@H]32)cc1 -5.72%
C=CCN1CCN(c2nc3ccccc3nc2C#N)CC1 -6.13% and -1.08%
CS(=O)(=O)Nc1cccc(-c2nc(Nc3ccccc3)c3ccccc3n2)c1 -10.5%
COC(=O)C1N[C@@H]([C@@H](NC(=O)COc2ccccc2)C(=O)NCc2ccsc2)SC1(C)C (stereo partly drawn) -10.9%
N[C@@H](C(=O)N[C@H]1C(=O)N2C(C(=O)O)=C(Cl)CC[C@H]12)c1ccccc1 -15.3%
Cc1cccc(C)c1NC(=O)C1CCCCN1C (stereo not drawn) -28.7%
COc1ccc(C2C(=O)c3ccccc3C2=O)cc1 -20.6%
COc1cc2nc(CC(O)c3nc4cc(OC)c(OC)cc4[nH]3)[nH]c2cc1OC (stereo not drawn) -5.47%
C[C@@H](CN(C)C)CN1c2ccccc2Sc2ccccc21 -7.27%
CN(C)c1ncnc2ccc(-c3ccc4c(c3)OCO4)cc12 -11.6%
COc1cc(/C=C/C(=O)N2CCC=CC2=O)cc(OC)c1OC -4.17%
CN(C)c1ccc2nc3ccc(=[N+](C)C)cc-3sc2c1 -9.56%
O=c1c(CCc2ccccc2)nc2cncnc2n1Cc1ccccc1 -0.745%
COc1ccc(OC)c(-c2cc(Cl)c3c(c2)CC(CNC(=O)c2cnn4cccnc24)O3)c1 (stereo not drawn) -7.05%
Cc1cn([C@H]2C[C@H](F)[C@@H](CO)O2)c(=O)[nH]c1=O -1.45%
Cc1nc2cnc(Oc3ccccc3)nc2n(CCc2ccccc2)c1=O -6.52%
Cc1noc(C)c1C(=O)N1CCC[C@@]2(CCN(Cc3ccccc3)C2)C1 -10.5%
Cc1cc(C(=O)NCCc2ccc(S(=O)(=O)NC(=O)NN3CCCCCC3)cc2)no1 7.44%
CN(CCc1ccc(Cl)c(Cl)c1)C[C@@H](O)COc1ccc(NS(C)(=O)=O)cc1 -0.238%
C[C@H]1CCC(=O)N([C@H](CC#N)Cc2ccccc2)CC1 -16.7%
COc1cc(OC)c2c(OC)c(-c3ccc4c(c3)OCO4)c(=O)oc2c1 -28.7%
CC(CSC(=O)c1ccccc1)C(=O)N1C[C@@H](Sc2ccccc2)C[C@H]1C(=O)O (stereo partly drawn) 2.56%
CN1C(C(=O)Nc2ccccn2)=C(O)c2sccc2S1(=O)=O -3.57% and -13.5%
CC(C)CSc1nnc(CNC(=O)c2ccccn2)n1C -8.29%
O=c1c(CCc2ccccc2)nc2cnc(N3CCOCC3)nc2n1-c1ccccc1 -9.11%
Cc1ccc2[nH]cc(C(O)c3c[nH]c4ccc(C)cc34)c2c1 -2.87%
Cc1noc(C)c1-c1ccc2ncnc(N(C)C)c2c1 -10.9%
Cc1cnc(-n2ncc(C(=O)N3CCN(C(C)C)CC3)c2-c2ccco2)nc1-c1ccc(F)cc1 -3.63%
C[Se]CCC(N)C(=O)O (stereo not drawn) -9.64%
CN1CCN(c2ncncc2-c2ccc(C(=O)N(C)C)cc2)CC1 -10.3%
CC12CC[C@@](C(=O)O)(C(=O)C1=O)C2(C)C -2.46%
CC(=O)c1ccc(-c2ccc3c4c(ccc3c2)OC(CNC(=O)[C@@H]2CCCN2C(C)=O)C4)s1 (stereo partly drawn) -9.51%
Cc1ccc(O)c2ncccc12 -17.8%
COc1ccc(S(=O)(=O)Nc2nnc(CC(C)C)s2)cc1 5.9% and 4.88%
CC1(C)S[C@H]2[C@@H](NC(=O)C(N)c3ccccc3)C(=O)N2[C@H]1C(=O)O (stereo partly drawn) -20.4%
O=S(=O)(c1ccccc1)N1CCC[C@@]2(CCN(Cc3ccccc3)C2)C1 -0.125%
Cc1cc(C)n(-c2cccc(C(=O)NCC3Cc4cc(Cl)cc(-c5cnccn5)c4O3)c2)n1 (stereo not drawn) 3.01%
CCN1CCN(C(=O)c2cnn(-c3ncc4c(n3)-c3ccccc3CCC4)c2COC)CC1 -5.13%
C=C1c2c(Cl)ccc(O)c2C(O)=C2C(=O)[C@]3(O)C(O)=C(C(N)=O)C(=O)C(N(C)C)C3C(O)C12 (stereo partly drawn) -11.1%
Cc1cc(O)c2c(c1O)C(=O)C(O)=C(O)C2=O -12.3%
Cn1c(=O)c(-c2cc(F)cc(F)c2)nc2cnc(Oc3cccc(Cl)c3)nc21 10.1%
C[C@@]12C(=O)OC(=O)[C@@]1(C)C1CCC2O1 -23.5%
COCCn1c(=O)c(C)nc2cnc(Oc3cccc(Cl)c3)nc21 -12.3%
O=C(c1csnn1)N1CCC2(CCCN(c3ccccn3)C2)CC1 5.52%
Cn1c(=O)c2[nH]cnc2n(C)c1=O -4.75% [middle of 5 runs]
CS(=O)(=O)c1ccc(C2=C(c3ccccc3)C(=O)OC2)cc1 5.43%
O=C(OCC1(COC(=O)c2cccnc2)CCCC(COC(=O)c2cccnc2)(COC(=O)c2cccnc2)C1O)c1cccnc1 -5.76%
Oc1ccc(Cl)c2c1CCC2 -23.7%
CC(C)[C@@H](CSc1ccccc1)N1CCN(Cc2ccccc2)CCC1=O -13.2%
CC1=C(C(N)=O)N2C(=O)[C@@H](NC(=O)Cc3ccccc3)C2SC1 (stereo partly drawn) 7.45%
COC1C[C@@H](O[C@@H]2C(C)C(=O)OC(C)C(C)[C@H](OC(C)=O)C(C)C(=O)[C@@]3(CO3)CC(C)C(OC3OC(C)CC(N(C)C)[C@H]3OC(C)=O)C2C)OC(C)[C@@H]1OC(C)=O (stereo partly drawn) -11.2%
Cn1cccc1C(=O)N1CCC2(CCCN(C(=O)Nc3cccc(C#N)c3)C2)CC1 -24.1%
Cc1cnc(-n2ncc(C(=O)NCCc3ccncc3)c2-c2cccs2)nc1-c1ccc(F)cc1 2.42%
C/C=C(\C)C(=O)O[C@H]1CC(C)=C2C(=O)C=C(C)C2[C@@H]2OC(=O)[C@@](C)(OC(=O)C=C(C)C)C21 (stereo partly drawn) -12.5%
CC(C)[C@H](CO)Nc1nc(Nc2cccc(Cl)c2)c2ncn(C(C)C)c2n1 0.823%
CCCNC(=O)[C@H]1O[C@@H]1C(=O)N[C@H](C(=O)N1CCC[C@H]1C(=O)OC)[C@@H](C)CC 1.19%
O=c1c2ccccc2oc2ccc(-c3ccoc3)cc12 -9.01%
COc1ccc(CCNC[C@H](O)c2ccc(O)cc2)cc1OC -8.14%
O=c1c(-c2cc(F)cc(F)c2)nc2cncnc2n1C1CC1 0.67%
C#C[C@]1(O)CC[C@H]2[C@@H]3CCc4cc(OC5CCCC5)ccc4[C@H]3CC[C@@]21C -28%
O=C(c1cc(C(F)(F)F)cc(C(F)(F)F)c1)N1CCC2(CC1)CN(c1ncccn1)C2 -30.5%
CN(C)CCC=C1c2ccccc2CCc2ccccc21 -8.63% and 7.74% and -19.1%
COc1ccc2c(c1)-c1nc(-n3ncc(C(=O)N(C)C(C)c4ccon4)c3C3CC3)ncc1CC2 (stereo not drawn) -3.51%
Cc1ccnc2c1NC(=O)c1cccnc1N2C1CC1 -0.816%
CN(CCc1ccc(Cl)c(Cl)c1)CCN1CCCC1 -2.2% and 7.59%
CC1=CC(=O)CC(C)(C)C1(O)/C=C/C(C)=C/C(=O)O (stereo not drawn) -22.8%
O=S(=O)(c1ccccc1)N1CCC2(CC1)CN(c1ccncc1)C2 -7.03%
CN1CCN(c2ncncc2-c2ccccc2C(F)(F)F)CC1 -5.22%
